Data from the supplement of paper PMC8728848.
The other results are listed elsewhere or left out.

How the values were obtained:
Experiment in all cases: glycan array binding signal (z-score within array); higher = stronger binding
Settings in all cases: glycan notation: IUPAC condensed, linker removed
[1] = biological target: Fuc(a1-2)[GalNAc(a1-3)]Gal(b1-4)[Fuc(a1-3)]GlcNAc
Outline: (§1)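 From the Consortium for Functional Glycomics database, 3228 arrays were curated, keeping only those whose protein sequence was available. Binding is given as a within-array Z-score averaged across arrays sharing a protein sequence and across linkers. Negative Z-scores can be read as non-binding.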

[2] = biological target: Fuc(a1-2)[GalNAc(a1-4)]Gal(b1-4)GlcNAc
Outline: as §1

[3] = biological target: Fuc(a1-2)[GalNAc(b1-3)]Gal
Outline: as §1

Fuc(a1-3)GlcNAc = biological target: Fuc(a1-3)GlcNAc
Outline: as §1

[4] = biological target: Fuc(a1-3)[Gal(b1-4)]Glc6S
Outline: as §1

[5] = biological target: Fuc(a1-3)[Gal(b1-4)]GlcNAc
Outline: as §1

[6] = biological target: Fuc(a1-3)[Gal(b1-4)]GlcNAc(b1-2)Man(a1-3)[Fuc(a1-3)[Gal(b1-4)]GlcNAc(b1-2)Man(a1-6)]Man(b1-4)GlcNAc(b1-4)GlcNAc
Outline: as §1

[7] = biological target: Fuc(a1-3)[Gal(b1-4)]GlcNAc(b1-2)Man(a1-6)[Gal(b1-4)GlcNAc(b1-2)Man(a1-3)]Man(b1-4)GlcNAc(b1-4)GlcNAc
Outline: as §1

[8] = biological target: Fuc(a1-3)[Gal(b1-4)]GlcNAc(b1-3)Gal(b1-3)[Fuc(a1-4)]GlcNAc
Outline: as §1

[9] = biological target: Fuc(a1-3)[Gal(b1-4)]GlcNAc(b1-4)Gal(b1-4)[Fuc(a1-3)]GlcNAc
Outline: as §1

[10] = biological target: Fuc(a1-3)[Gal(b1-4)]GlcNAc(b1-4)Gal(b1-4)[Fuc(a1-3)]GlcNAc(b1-4)Gal(b1-4)[Fuc(a1-3)]GlcNAc
Outline: as §1

[11] = biological target: Fuc(a1-3)[Gal(b1-4)]GlcNAc6S
Outline: as §1

[12] = biological target: Fuc(a1-3)[Gal3S(b1-4)]Glc6S
Outline: as §1

[13] = biological target: Fuc(a1-3)[Gal3S(b1-4)]GlcNAc
Outline: as §1

[14] = biological target: Fuc(a1-3)[Gal3S(b1-4)]GlcNAc6S
Outline: as §1

[15] = biological target: Fuc(a1-3)[GalNAc(b1-4)]GlcNAc
Outline: as §1

Fuc(a1-4)GlcNAc = biological target: Fuc(a1-4)GlcNAc
Outline: as §1

Fuc(b1-3)GlcNAc = biological target: Fuc(b1-3)GlcNAc
Outline: as §1

Gal(a1-2)Gal = biological target: Gal(a1-2)Gal
Outline: as §1

Gal(a1-3)Gal = biological target: Gal(a1-3)Gal
Outline: as §1

Gal(a1-3)Gal(b1-3)GlcNAc = biological target: Gal(a1-3)Gal(b1-3)GlcNAc
Outline: as §1

Gal(a1-3)Gal(b1-4)Glc = biological target: Gal(a1-3)Gal(b1-4)Glc
Outline: as §1

Gal(a1-3)Gal(b1-4)GlcNAc = biological target: Gal(a1-3)Gal(b1-4)GlcNAc
Outline: as §1

[16] = biological target: Gal(a1-3)Gal(b1-4)[Fuc(a1-3)]GlcNAc
Outline: as §1

Gal(a1-3)GalNAc = biological target: Gal(a1-3)GalNAc
Outline: as §1

[17] = biological target: Gal(a1-3)[Gal(a1-4)]Gal(b1-4)GlcNAc
Outline: as §1

Gal(a1-4)Gal(b1-4)Glc = biological target: Gal(a1-4)Gal(b1-4)Glc
Outline: as §1

Gal(a1-4)Gal(b1-4)GlcNAc = biological target: Gal(a1-4)Gal(b1-4)GlcNAc
Outline: as §1

Gal(a1-4)GlcNAc = biological target: Gal(a1-4)GlcNAc
Outline: as §1

Gal(a1-6)Glc = biological target: Gal(a1-6)Glc
Outline: as §1

Gal(b1-2)Gal = biological target: Gal(b1-2)Gal
Outline: as §1

Gal(b1-3)Gal = biological target: Gal(b1-3)Gal
Outline: as §1

Gal(b1-3)Gal(b1-4)GlcNAc = biological target: Gal(b1-3)Gal(b1-4)GlcNAc
Outline: as §1

Gal(b1-3)GalNAc = biological target: Gal(b1-3)GalNAc
Outline: as §1

[18] = biological target: Gal(b1-3)GalNAc(b1-3)Gal(a1-4)Gal(b1-4)Glc
Outline: as §1

[19] = biological target: Gal(b1-3)GalNAc(b1-4)Gal(b1-4)Glc
Outline: as §1

[20] = biological target: Gal(b1-3)GalNAc(b1-4)[Neu5Ac(a2-3)]Gal(b1-4)Glc
Outline: as §1

Gal(b1-3)GlcNAc = biological target: Gal(b1-3)GlcNAc
Outline: as §1

[21] = biological target: Gal(b1-3)GlcNAc(b1-2)Man(a1-3)[Gal(b1-3)GlcNAc(b1-2)Man(a1-6)]Man(b1-4)GlcNAc(b1-4)GlcNAc
Outline: as §1

[22] = biological target: Gal(b1-3)GlcNAc(b1-3)Gal(b1-3)GlcNAc
Outline: as §1

[23] = biological target: Gal(b1-3)GlcNAc(b1-3)Gal(b1-4)Glc
Outline: as §1

[24] = biological target: Gal(b1-3)GlcNAc(b1-3)Gal(b1-4)GlcNAc
Outline: as §1

[25] = biological target: Gal(b1-3)[Fuc(a1-4)]GlcNAc
Outline: as §1

[26] = biological target: Gal(b1-3)[Fuc(a1-4)]GlcNAc(b1-3)Gal(b1-3)[Fuc(a1-4)]GlcNAc
Outline: as §1

[27] = biological target: Gal(b1-3)[Fuc(a1-4)]GlcNAc(b1-3)Gal(b1-4)GlcNAc
Outline: as §1

B1: CBM32-4 (Clostridium perfringens), P26831 (protein)
chain: MGSSHHHHHHSSGLVPRGSHMASVYEPSLVDAYVGDDGAKKAVDGDLKTRVKFLGAPSTGDTIVYDLGQEILVDNLKYVVLDTEVDHVRDGKIQLSLDGETWTDAINIGDGVENGVDDMFSTPLKNGYKHGNQSGGIVPIDSAYVEGDNLNQKARYVRILFTAPYRHRWTVINELMINNGEYIPTVNDPT
[1]
  glycan array binding signal (z-score): -0.307
[2]
  glycan array binding signal (z-score): -0.411
[3]
  glycan array binding signal (z-score): -0.504
Fuc(a1-3)GlcNAc
  glycan array binding signal (z-score): -0.292
[4]
  glycan array binding signal (z-score): 0.044
[5]
  glycan array binding signal (z-score): -0.408
[6]
  glycan array binding signal (z-score): 0.148
[7]
  glycan array binding signal (z-score): -0.493
[8]
  glycan array binding signal (z-score): -0.438
[9]
  glycan array binding signal (z-score): -0.313
[10]
  glycan array binding signal (z-score): -0.324
[11]
  glycan array binding signal (z-score): -0.103
[12]
  glycan array binding signal (z-score): 0.526
[13]
  glycan array binding signal (z-score): -0.338
[14]
  glycan array binding signal (z-score): 1.3
[15]
  glycan array binding signal (z-score): -0.411
Fuc(a1-4)GlcNAc
  glycan array binding signal (z-score): 0.045
Fuc(b1-3)GlcNAc
  glycan array binding signal (z-score): -0.264
Gal(a1-2)Gal
  glycan array binding signal (z-score): -0.369
Gal(a1-3)Gal
  glycan array binding signal (z-score): -0.431
Gal(a1-3)Gal(b1-3)GlcNAc
  glycan array binding signal (z-score): -0.458
Gal(a1-3)Gal(b1-4)Glc
  glycan array binding signal (z-score): -0.149
Gal(a1-3)Gal(b1-4)GlcNAc
  glycan array binding signal (z-score): -0.419
[16]
  glycan array binding signal (z-score): -0.501
Gal(a1-3)GalNAc
  glycan array binding signal (z-score): -0.431
[17]
  glycan array binding signal (z-score): -0.415
Gal(a1-4)Gal(b1-4)Glc
  glycan array binding signal (z-score): -0.204
Gal(a1-4)Gal(b1-4)GlcNAc
  glycan array binding signal (z-score): -0.163
Gal(a1-4)GlcNAc
  glycan array binding signal (z-score): -0.286
Gal(a1-6)Glc
  glycan array binding signal (z-score): -0.113
Gal(b1-2)Gal
  glycan array binding signal (z-score): -0.149
Gal(b1-3)Gal
  glycan array binding signal (z-score): -0.33
Gal(b1-3)Gal(b1-4)GlcNAc
  glycan array binding signal (z-score): -0.57
Gal(b1-3)GalNAc
  glycan array binding signal (z-score): -0.454
[18]
  glycan array binding signal (z-score): -0.307
[19]
  glycan array binding signal (z-score): -0.39
[20]
  glycan array binding signal (z-score): -0.49
Gal(b1-3)GlcNAc
  glycan array binding signal (z-score): -0.387
[21]
  glycan array binding signal (z-score): -0.525
[22]
  glycan array binding signal (z-score): -0.398
[23]
  glycan array binding signal (z-score): -0.494
[24]
  glycan array binding signal (z-score): -0.292
[25]
  glycan array binding signal (z-score): -0.34
[26]
  glycan array binding signal (z-score): -0.454
[27]
  glycan array binding signal (z-score): -0.418
